# Data published in PMC4336329 (PLoS ONE, 2015).
# The campaign covered roughly 310,000 compounds. About 14,000 (4.5%) showed an effect of 50% or more. The effect is printed as a negative number. This is one part of the list.
# Target: human ether-à-go-go-related gene (hERG) potassium channel (human, UniProt Q12809)
# Test: primary screen, population patch clamp on CHO cells stably expressing hERG
# 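Note: peak tail current of the secondary pulse compared with the same well before compound.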
# Chain of human ether-à-go-go-related gene (hERG) potassium channel (Q12809 whole entry, looked up): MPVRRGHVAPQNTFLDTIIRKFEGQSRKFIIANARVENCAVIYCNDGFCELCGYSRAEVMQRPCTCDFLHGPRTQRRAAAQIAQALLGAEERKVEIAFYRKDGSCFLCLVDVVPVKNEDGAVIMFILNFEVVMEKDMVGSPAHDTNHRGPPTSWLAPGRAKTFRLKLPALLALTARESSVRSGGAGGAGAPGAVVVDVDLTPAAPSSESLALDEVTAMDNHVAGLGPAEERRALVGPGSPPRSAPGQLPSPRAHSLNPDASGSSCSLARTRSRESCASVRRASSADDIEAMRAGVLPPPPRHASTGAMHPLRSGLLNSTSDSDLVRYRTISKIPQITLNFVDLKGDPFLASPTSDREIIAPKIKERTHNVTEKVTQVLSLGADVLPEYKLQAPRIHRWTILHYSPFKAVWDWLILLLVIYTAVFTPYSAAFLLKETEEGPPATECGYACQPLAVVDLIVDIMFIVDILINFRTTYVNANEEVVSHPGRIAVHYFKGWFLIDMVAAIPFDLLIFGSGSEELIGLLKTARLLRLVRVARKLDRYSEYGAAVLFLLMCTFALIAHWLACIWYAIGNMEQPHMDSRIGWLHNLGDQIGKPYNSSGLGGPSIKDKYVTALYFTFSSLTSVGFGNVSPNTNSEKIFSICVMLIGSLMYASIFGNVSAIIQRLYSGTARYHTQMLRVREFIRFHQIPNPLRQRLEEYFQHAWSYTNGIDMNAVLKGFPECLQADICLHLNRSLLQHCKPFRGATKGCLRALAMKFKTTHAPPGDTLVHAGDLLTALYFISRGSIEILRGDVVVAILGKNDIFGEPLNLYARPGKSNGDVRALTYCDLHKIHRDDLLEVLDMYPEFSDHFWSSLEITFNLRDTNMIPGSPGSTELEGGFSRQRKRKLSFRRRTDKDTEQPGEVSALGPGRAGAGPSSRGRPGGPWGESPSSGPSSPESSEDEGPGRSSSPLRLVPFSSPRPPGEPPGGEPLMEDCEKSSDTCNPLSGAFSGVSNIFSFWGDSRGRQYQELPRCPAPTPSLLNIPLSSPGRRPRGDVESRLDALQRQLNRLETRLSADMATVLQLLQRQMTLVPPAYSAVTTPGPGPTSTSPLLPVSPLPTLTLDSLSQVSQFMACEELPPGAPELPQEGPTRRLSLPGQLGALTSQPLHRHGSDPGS
row,SMILES,"hERG current change (%, negative = inhibition) at 10uM"
1,Cc1ccc(OCC(=O)Nc2ccc3c(c2)OCO3)c(C)c1,3.47%
2,CCCNc1nc(C)cc(-c2cc(-c3ccc(Cl)cc3)on2)n1,9.18%
3,CCc1nnc(NC(=O)c2ccc(-c3ccccc3Cl)o2)s1,4.85%
4,CNCCCOc1cc(C)cc(C)c1C.O=C(O)C(=O)O,7.23%
5,CC1CCN(CC(=O)Nc2ccccc2C(=O)c2ccccc2)CC1,-10.6%
6,Nc1nnc(SCn2nnc3ccccc3c2=O)s1,21%
7,COc1ccc(-c2cc(C(=O)Nc3ccc(C(N)=O)cc3)c3ccccc3n2)cc1OC,8.99%
8,CCOP(=O)(OCC)C(O)c1cccnc1 (centres unmarked),-3.65%
9,C=CCn1cccc(/C=C/C(=O)c2ccc(C(C)(C)C)cc2)c1=S,3.37%
10,Cc1ccc(OCc2nc(-c3ccccn3)no2)cc1,-5.28%
11,O=C(CNC(=O)c1ccc(Br)o1)NCc1ccc(F)cc1,18.1%
12,COc1ccc(OC)c(/C=N/N=C2\SCC(=O)N2Cc2ccco2)c1,6.61%
13,CCCCN(C)CCn1c(=S)[nH]c2ncccc2c1=O,-24%
14,CC(C)c1nc(SCC(=O)Nc2nc3c(s2)CCCC3)c2ccccc2n1,-2.4%
15,O=C1N/C(=C\c2ccc(O)cc2)C(O)=C1C=NCc1ccccc1,6.64%
16,Cc1ccc(-n2c3c(cc(C(=O)NCC(=O)c4ccccc4)c2=O)C(=O)CCC3)cc1,10.2%
17,Cc1ccc(/C(N)=N/OC(=O)C23CC4CC(CC(C4)C2)C3)cc1,3.85%
18,COc1ccc([C@@H]2C[C@H]3CN(c4ccccc4)C(=O)[C@]34CCCN24)c(OC)c1OC,-78.3%
19,CCc1ccccc1OCC(=O)OCC(=O)Nc1cc(C)on1,-2.74%
20,CN(C(=O)COc1cccc(Br)c1)C1CCS(=O)(=O)C1 (centres unmarked),17.5%
21,COc1cc(C(=O)[O-])ccc1Cl.[NH4+],16.4%
22,CCNC(=O)CN1C(=O)NC2(CCOc3ccccc32)C1=O (centres unmarked),12.7%
23,CC(=O)Nc1ccc(SCC(=O)c2cc(C)n(-c3ccccc3F)c2C)cc1,5.28%

row,SMILES,"hERG current change (%, negative = inhibition) at 10uM"
1,COc1cccc(OCc2nnc(SCC(=O)OCc3ccccc3)o2)c1,-4.36%
2,Cc1oc(C)c(S(=O)(=O)NCc2cccs2)c1C(=O)O,-0.392%
3,O=C1N=C(N2CCOCC2)S/C1=C/c1ccc(-c2ccc(F)cc2)o1,2.43%
4,N=C1C(c2ccccc2)=C(O)CN1CCO,23.7%
5,Cc1ccc(NC(=O)c2ccc(CSc3nnnn3C)cc2)cc1,-15.3%
6,CCOC(=O)C1=C(C)NC(C)=C(C(=O)OCCNC(=O)c2cccnc2)C1c1cccc([N+](=O)[O-])c1 (centres unmarked),-6.38%
7,COc1ccc(CCNC(=O)CNC(=O)c2ccc(Br)o2)cc1OC,-29.9%
8,CS(=O)(=O)N1CCN(c2ccccc2NC(=O)c2cccs2)CC1,-49.9%
9,COc1ccc(N(CC(=O)NCCc2ccccc2)C(=O)c2csnn2)cc1,-25.2%
10,COc1ccc(NC(=O)CC2C(=O)N(C)C(=S)N2Cc2ccncc2)cc1 (centres unmarked),5.18%
11,O=C1NC(=O)/C(=C/C(=O)N2CCOCC2)S1,2.82%
12,NC(=O)c1ccc(NC(=O)c2cccc(Oc3ccccc3)c2)cc1,16.9%
13,Cc1cc(NCCC(C)C)n2nc(C)c(-c3ccccc3)c2n1,1.03%
14,Cc1ccc(C(=O)C2=C(O)C(=O)N(Cc3cccnc3)C2c2ccc(Cl)c(Cl)c2)o1 (centres unmarked),13%
15,COC(=O)CCCC1=CC2=C(c3ccccc3)C(=O)C(C)(OC(=O)C3CCCC3)C(=O)C2=CN1CC(C)C (centres unmarked),-1.56%
16,Cc1ccccc1C(=O)Nc1ccccc1N1CCN(C(=O)c2ccccc2)CC1,-74%
17,CC1CCC(NC(=O)C2CCN(S(=O)(=O)c3ccc4nc5c(c(C(=O)O)c4c3)CC(C)CC5)CC2)CC1 (centres unmarked),16.1%
18,O=C(O)CC1CCC(=C(Cl)Cl)C1 (centres unmarked),-3.88%
19,CC(C)(C)c1cc(C(=O)N2CCc3ccccc3C2)ccn1,1.64%
20,CCOC(=O)Cc1ccc(NC(=O)c2cccc([N+](=O)[O-])c2)cc1,5.55%
21,CC1CN(c2nc3c(c(=O)n(C)c(=O)n3C)n2Cc2c(F)cccc2Cl)CC(C)O1 (centres unmarked),-7.08%
22,CCOC(=O)C1CCCN(C(=O)COc2ccc(S(=O)(=O)N(CC)c3ccccc3)cc2)C1 (centres unmarked),-51.8%
23,CN(CC1CCOCC1)C(=O)CC1C(=O)NCCN1Cc1cccc(Oc2ccccc2)c1 (centres unmarked),33.4%

row,SMILES,"hERG current change (%, negative = inhibition) at 10uM"
1,O=C(O)C(=O)O.O=[N+]([O-])c1ccc(OCCN2CCCCCC2)cc1,-86.1%
2,Cc1n[nH]c(=O)nc1N1CCc2ccccc2C1,4.47%
3,COc1ccc(C2NC(C(=O)O)CS2)cc1COCC(F)(F)F (centres unmarked),3.38%
4,Cl.NCCc1c[nH]c2ccc(F)cc12,17.4%
5,CCOC(=O)c1nnn(CC(=O)Nc2cccc(F)c2)c1C(=O)OCC,7.97%
6,CSc1cccc(CN2CCN(CCC(C)C)C(CCO)C2)c1 (centres unmarked),-33.2%
7,O=C(NC1CCCCC1)C(c1ccco1)N(Cc1ccco1)C(=O)c1ccco1 (centres unmarked),-9.2%
8,CC(=O)N(C)c1ccc(N2CCOCC2)c2c1C(=O)c1ccccc1C2=O,-0.974%
9,N#Cc1c(-c2ccco2)ccn(Cc2cccc(F)c2)c1=O,9.79%
10,CC(NC(=O)COc1ccc(-c2ccccc2)cc1)C1CCCO1 (centres unmarked),-6.36%
11,CCOC(=O)C1(CC2CCCCO2)CCN(C(=O)Nc2ccc3c(c2)OCO3)CC1 (centres unmarked),15.9%
12,COc1ccc(NC(=O)CSc2n[nH]c(CNc3cccc(C)c3)n2)cc1,-4.57%
13,c1cncc(CNc2ncn[nH]2)c1,7.23%
14,Cc1cc(C)cc(OCC(=O)NCc2nc(-c3ccccc3)no2)c1,6.96%
15,COc1ccc(C(=O)NNC(=O)c2ccc(C)cc2)cc1S(=O)(=O)N1CCCC1,-6.29%
16,CCc1ccc(S(=O)(=O)NCc2cccs2)cc1,-17.6%
17,CCCCNC(=O)c1[nH]c(C)c(C(C)=O)c1C,13.5%
18,c1ccc(-c2noc(CCC3CCCC3)n2)cc1,17.8%
19,O=C(Nc1cc(C(F)(F)F)ccc1N1CCOCC1)c1ccc2ccccc2n1,26.2%
20,Cc1ccc(NC(=O)COC(=O)c2ccn(C)n2)cc1,-3.92%
21,Cc1ccc(NC(=S)Nc2ccccn2)cc1C,6.99%
22,CC(C)Cn1c(NCCN(C)C)nc2c1c(=O)[nH]c(=O)n2C,10.1%
23,N#CCCn1cc(/C=N/N=C2\NC(=O)C(CC(=O)O)S2)c(-c2ccc(F)cc2)n1 (centres unmarked),10.9%

row,SMILES,"hERG current change (%, negative = inhibition) at 10uM"
1,CC(/C=N/NC(=O)c1ccccc1F)c1ccccc1 (centres unmarked),14.8%
2,COc1ccccc1OCC(=O)NNC(=O)C(=O)N1CCCC1,16.3%
3,COC(=O)c1ccc(N2CCN(S(=O)(=O)c3c(C)cc(C)cc3C)CC2)c([N+](=O)[O-])c1,21.4%
4,Cc1ccc(C(=O)NC2CCN(CCCC(=O)c3ccc(F)cc3)CC2)cc1,-74%
5,CC(C(=O)Nc1ccc2c(c1)OCO2)c1ccc([N+](=O)[O-])cc1 (centres unmarked),-8.75%
6,O=C(C#Cc1ccccc1)c1ccco1,5.83%
7,COc1ccccc1NC(=O)Cn1nc(C(F)(F)F)c2c1CCCC2,-5.47%
8,COc1cc(/C=N/NC(N)=O)ccc1OC(=O)c1cccs1,-20.9%
9,CC1(C)CC(=O)C(C=NCC2CCN(C(=O)Cc3ccccc3)CC2)=C(O)C1,-6.65%
10,CCCN(CC1CC1)C(=O)CSc1nnc(-c2cc(-c3cccs3)nc3ccccc23)o1,-5.05%
11,O=C(CNC(=O)c1ccccc1Br)NCCSc1ccc(Br)cc1,-35.1%
12,O=C(Cc1ccc(Cl)cc1)NCCCNC(=O)c1cccnc1,28.5%
13,O=C(O)c1cn[nH]c1-n1cnnn1,-9.46%
14,COCCN1C(=O)C(CC(=O)Nc2ccccc2)SC1=Nc1ccc(OC)cc1 (centres unmarked),3.45%
15,CCC(C)N(C(=O)c1csnn1)C(C(=O)NCc1ccc(F)cc1)c1ccccc1 (centres unmarked),0.665%
16,CCOC(=O)C1=C(CSCC(=O)OC)NC(=O)NC1c1cc(C)ccc1C (centres unmarked),-4.23%
17,COc1cccc2c3c(c(=O)[nH]c12)CCC(C)(C)O3,5.53%
18,O=C(c1ccoc1)N1CCCC(Nc2ccc(F)c(F)c2)C1 (centres unmarked),10.9%
19,CC1(C)CC(=O)c2cc(OCC(=O)N3CCOCC3)ccc2O1,-0.981%
20,O=C(Oc1ccc(=O)n(-c2ccccc2)n1)c1ccccc1,-6.05%
21,CCCCn1c(/N=C/c2cc(OC)ccc2O)nc2ccccc21,5.05%
22,Cc1csc(NC(=O)CSc2nnc(NC(=O)COc3ccc(Cl)cc3)s2)n1,31.5%
23,CCOC(=O)N1CCN(C(=O)CSc2nc3c(cnn3-c3ccc(Cl)cc3)c(=O)[nH]2)CC1,-8.66%
